Measured values as given in PubChem BioAssay AID504332 (National Center for Advancing Translational Sciences (NCATS), 2011).
Several values for one entry are separate records, joined by “and”; a condition that tells them apart may be missing. Identical values can stand only once. Out of some 350,000 compounds screened, about 31,000 (8.9%) were called active. Inconclusive means that the source gave no clear call. Such entries were picked first, then a sample of the others. Calls come from the whole dose curve; as a rule, active = well fitted inhibition curve with a large enough effect; inconclusive = small, poorly fitted or top-dose-only effect; inactive = no such curve, though single readings can be large or run the other way. Where the call is inconclusive, the potency comes from a doubtful curve fit. More than one record can exist for a structure, and the calls need not agree.
% is set by controls: 0 for no effect and ±100 for the full control effect; potency is the fitted concentration of half-maximal effect; tags give direction and shape of the fitted curve.
Note: nearly all actives have a fitted effect of over 75% in size.

Each molecule was assayed against Histone-lysine N-methyltransferase EHMT2 (Homo sapiens) (UniProt Q96KQ7) (assay: qHTS Assay for Inhibitors of Histone Lysine Methyltransferase G9a). Details: G9a H3K9 monomethylation, AlphaScreen, 2 h; activity, negative = inhibition: at 59 µM (top of the series) unless noted.
Sequence of UniProt Q96KQ7 (Q96KQ7 whole entry, looked up): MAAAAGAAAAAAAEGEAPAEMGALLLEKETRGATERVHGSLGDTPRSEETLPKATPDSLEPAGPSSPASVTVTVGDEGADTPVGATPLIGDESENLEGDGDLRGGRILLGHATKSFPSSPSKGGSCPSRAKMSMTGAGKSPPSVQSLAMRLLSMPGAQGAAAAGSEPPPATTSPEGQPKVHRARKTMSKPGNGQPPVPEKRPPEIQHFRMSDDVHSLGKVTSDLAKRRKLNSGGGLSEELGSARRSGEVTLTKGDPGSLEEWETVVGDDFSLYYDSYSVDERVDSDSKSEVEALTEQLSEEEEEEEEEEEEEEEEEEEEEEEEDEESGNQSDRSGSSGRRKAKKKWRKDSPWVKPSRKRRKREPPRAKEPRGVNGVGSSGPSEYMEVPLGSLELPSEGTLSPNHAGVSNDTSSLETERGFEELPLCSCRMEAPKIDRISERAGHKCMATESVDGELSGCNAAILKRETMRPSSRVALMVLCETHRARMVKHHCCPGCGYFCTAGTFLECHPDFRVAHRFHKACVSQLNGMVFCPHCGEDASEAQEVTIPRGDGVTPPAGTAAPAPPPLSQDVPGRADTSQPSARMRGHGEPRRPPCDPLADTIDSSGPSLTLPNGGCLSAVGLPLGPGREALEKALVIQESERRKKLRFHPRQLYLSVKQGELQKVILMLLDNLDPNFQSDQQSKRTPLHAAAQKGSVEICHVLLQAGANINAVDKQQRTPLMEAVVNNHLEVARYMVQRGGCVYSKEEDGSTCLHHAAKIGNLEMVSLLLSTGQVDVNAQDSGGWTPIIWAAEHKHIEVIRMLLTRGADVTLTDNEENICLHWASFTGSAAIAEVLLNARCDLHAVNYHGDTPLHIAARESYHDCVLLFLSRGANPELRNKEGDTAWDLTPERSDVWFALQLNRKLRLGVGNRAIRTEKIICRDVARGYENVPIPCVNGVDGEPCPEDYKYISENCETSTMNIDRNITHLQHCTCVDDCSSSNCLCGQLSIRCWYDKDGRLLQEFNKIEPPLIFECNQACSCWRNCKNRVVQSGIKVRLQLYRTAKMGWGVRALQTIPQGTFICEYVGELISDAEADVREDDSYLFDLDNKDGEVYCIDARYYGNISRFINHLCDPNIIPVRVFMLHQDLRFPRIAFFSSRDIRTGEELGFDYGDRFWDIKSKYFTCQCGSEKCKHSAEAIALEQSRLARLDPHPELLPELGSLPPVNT
Method in brief: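 Methyltransferase reactions run at room temperature for 2 h (20 nM enzyme, 500 nM biotin-H3K9 peptide, 20 uM SAM) after a 15 min compound preincubation; product detected by AlphaScreen beads and anti-H3K9me1 antibody.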
For `CCCCn1c(NC(=O)c2ccc(Br)o2)c(C(=O)OCC)c2nc3ccccc3nc21`, the Potency was inconclusive: 100 µM [inhibitor, single point].
In the case of `O=c1[nH]c(O)c(C=Nc2ccccc2Sc2ccccc2)c(=O)[nH]1`, the Potency is reported as inconclusive: 89.1 µM [inhibitor, partial curve, poor fit].
`Cc1ccc(NC(=O)c2cc(-c3ccccc3)n(CCCN3CCOCC3)c2C)cc1` was tested, and the Potency was inconclusive: 50.1 µM [inhibitor, partial curve].
In the case of `COc1ccc(-c2nc3ccccc3c(=O)n2-c2ccc(OC)cc2)cc1`, the activity, negative = inhibition is reported as inactive: -2.9% [at 0.501 µM].
In the case of `N#Cc1c(/N=C/c2ccc(O)cc2O)sc2c1C1CCN2CC1`, the Potency is reported as inconclusive: 25.1 µM [inhibitor, single point].
In the case of `CSc1nc2ccc(C)cc2c(=O)n1-c1cccnc1`, the Potency is reported as “inactive”.
`O=C1NC(=O)N(Cc2ccccc2Cl)C(=O)/C1=C/N1CCOCC1` was tested, and the Potency was inconclusive: 39.8 µM [inhibitor, single point].
For `CCC12CN3CC(CC)(CN(C1)C3c1c(C)[nH]c(=O)[nH]c1=O)C2=O` (stereo not given), the Potency was inconclusive: 39.8 µM [inhibitor, single point].
`CCCNS(=O)(=O)c1ccc(OCC(=O)N2CCN(Cc3ccccc3)CC2)cc1` was tested, and the activity, negative = inhibition was inactive: -24.4% [at 12.7 µM].
For `COc1ccc(CCNCc2ccncc2)cc1`, the Potency was inconclusive: 6.31 µM [inhibitor, single point].
With `O=C1c2ccccc2C(Nc2ccc(S(=O)(=O)N3CCCCCC3)cc2)N1c1ccccn1` (stereo not given) the Potency was inconclusive: 79.4 µM [inhibitor, single point].
`O=C1OC(c2cc(I)c(O)c(I)c2)(c2cc(I)c(O)c(I)c2)c2ccccc21` was tested, and the Potency was active: 7.08 µM.
With `O=C(CN1CCCCC1)c1ccc(OC(F)F)cc1` the Potency was inconclusive: 25.1 µM [inhibitor, single point].
For `COc1ccc(C2C([N+](=O)[O-])=C(N)Oc3c2c(=O)oc2ccccc32)cc1` (stereo not given), the Potency was “inactive”.
In the case of `CCOc1ccccc1CN1C2CCC1CC(c1ccc(C)cc1)C2` (stereo not given), the Potency is reported as “inactive”.
For `NC(=NCCc1ccc(I)cc1)SCCCc1cnc[nH]1`, the Potency was inconclusive: 14.1 µM [inhibitor, partial curve].
In the case of `O=C(O[C@@H]1Cc2c(O)cc(O)cc2O[C@@H]1c1cc(O)c(O)c(O)c1)c1cc(O)c(O)c(O)c1`, the Potency is reported as active: 1.78 µM.
`N#CCCn1cc(C(=O)Nc2ccc([N+](=O)[O-])cc2)c(-c2ccccc2)n1` was tested, and the activity, negative = inhibition was inactive: 30.1% [at 12.7 µM].
For `CN1CCN(Cc2ccc(OC(F)(F)F)cc2)CC1`, the Potency was inconclusive: 89.1 µM [inhibitor, single point].
In the case of `Cc1cccc(-n2c(/C=C/c3ccc([N+](=O)[O-])o3)nc3ccccc3c2=O)c1`, the Potency is reported as inconclusive: 44.7 µM [inhibitor, partial curve, poor fit].
For `Cc1ccc2c(c1)=NC(=O)/C(=C/c1c(O)[nH]c(=O)[nH]c1=O)C=2`, the Potency was inconclusive: 6.31 µM [inhibitor, single point].
`COc1ccccc1CNCc1cc(OC)c(OC)cc1OC` was tested, and the Potency was active: 3.16 µM.
For `O=C1CC(=O)N(c2cccc(Br)c2)C(=O)N1`, the Potency was active: 56.2 µM.
For `Cc1ccc(-n2c(C)cc(/C=C3/C(=O)NC(=O)N(Cc4ccco4)C3=O)c2C)cc1`, the Potency was inconclusive: 39.8 µM [inhibitor, single point].
For `COc1ccc2c(CN3CC=C(c4ccccc4)CC3)cc(=O)oc2c1`, the Potency was inconclusive: 89.1 µM [inhibitor, single point].
For `COc1cccc(N=Nc2c(O)[nH]c(=S)[nH]c2=O)c1`, the Potency was active: 50.1 µM.
In the case of `Cc1oc(-c2ccccc2Cl)nc1CN1C(=O)CN=C(c2ccccc2)c2ccccc21`, the Potency is reported as active: 39.8 µM.
For `CN(C)c1ccc(CN2CCc3nc(N4CCN(c5ccccn5)CC4)ncc3C2)cc1`, the Potency was inconclusive: 5.62 µM [inhibitor, partial curve, poor fit].
With `COC(=O)Cn1cc(C=C2C(=O)NC(=O)NC2=O)c2ccccc21` the Potency was inconclusive: 50.1 µM [inhibitor, single point].
For `CCC1(c2cccc(O)c2)CCCCN(C)C1` (stereo not given), the Potency was “inactive”.
`Nc1cccc(N=Cc2c(O)n(Cc3ccc(F)cc3)c(=O)[nH]c2=O)c1` was tested, and the Potency was active: 12.6 µM.
In the case of `O=c1cccc2n1CC1CC2CN(C(c2cccc(F)c2)c2sc3ncnn3c2O)C1` (stereo not given), the Potency is reported as inconclusive: 79.4 µM [inhibitor, single point].
With `Cc1ccccc1CN1CCN(C(=O)Cc2ccccc2)CC1` the Potency was active: 15.8 µM.
`CCNC(C)Cc1cccc(C(F)(F)F)c1` (stereo not given) was tested, and the Potency was inconclusive: 7.08 µM [inhibitor, partial curve, poor fit].
`CCOC(=O)CNC(=O)CNC(=O)C(Cc1ccc(N(CCCl)CCCl)cc1)NC(C)=O` (stereo not given) was tested, and the Potency was inconclusive: 89.1 µM [inhibitor, partial curve, poor fit].
With `CCCCCCCCc1[se]c2ccccc2c1Br` the Potency was “inactive”.
In the case of `Cc1cccn2c(=O)c3c(nc12)N1CCC(Cc2ccccc2)CC1C1(C3)C(=O)N(C)C(=O)N(C)C1=O` (stereo not given), the Potency is reported as inconclusive: 3.16 µM [inhibitor, partial curve, poor fit].
`COc1ccc(Cn2c(O)c(/C=N/NC(=O)c3ccncc3)c(=O)[nH]c2=O)cc1` was tested, and the Potency was inconclusive: 89.1 µM [inhibitor, partial curve, poor fit].
In the case of `O=c1c2ccccc2nc(/C=C/c2ccccc2F)n1-c1ccccc1O`, the Potency is reported as inconclusive: 79.4 µM [inhibitor, single point].
`CCOc1cc2c(cc1OCC)-n1cccc1C(c1ccc(C)cc1C)NC2` (stereo not given) was tested, and the Potency was inconclusive: 79.4 µM [inhibitor, single point].
`CC(=O)OCC1=C(C(=O)O)N2C(=O)[C@@H](N)[C@@H]2SC1` was tested, and the activity, negative = inhibition was inactive: 0.411% [at 5.15 µM].
With `[O-]/[N+](=C/c1cccnc1)c1ccc(Br)cc1` the Potency was inconclusive: 0.794 µM [inhibitor, partial curve, poor fit].
In the case of `NC(=O)C1=CN(C2OC(COP(=O)(O)OP(=O)(O)OC[C@H]3O[C@@H](n4cnc5c(N)ncnc54)[C@H](OP(=O)(O)O)[C@@H]3O)C(O)C2O)C=CC1` (stereo not given in full), the Potency is reported as active: 10.6 µM.
With `c1ccc(Cc2nn3c(Cn4cnc5ccccc54)nnc3s2)cc1` the Potency was active: 3.16 µM.
With `CSc1cccc(NC(=O)C2CCN(C(=O)c3cnn(-c4ccccc4)c3-n3cccc3)CC2)c1` the Potency was inconclusive: 28.2 µM [inhibitor, partial curve, poor fit].
`CC1CCN(CC(=O)c2cccc(C(F)(F)F)c2)CC1` was tested, and the Potency was active: 8.91 µM.
In the case of `CC(C)n1c(=O)c(C=Nc2ccc(S(N)(=O)=O)cc2)c(O)n(Cc2ccco2)c1=O`, the Potency is reported as inconclusive: 79.4 µM [inhibitor, single point].
For `CNC(=O)Oc1ccc(-c2cn3cc(C)ccc3n2)cc1`, the Potency was inconclusive: 39.8 µM [inhibitor, single point].
In the case of `O=C1C2(c3ccccc3)CN3CN(C2)CC1(c1ccccc1)C3`, the Potency is reported as inconclusive: 89.1 µM [inhibitor, single point].
In the case of `COc1ccc2c(c1)[nH]c1c(C)nccc12`, the Potency is reported as “inactive and active: 12.6 µM”.
For `O=C(Nc1ccc(Cl)cc1C(=O)c1ccccc1)c1ccccc1`, the Potency was “inactive”.
`COCCCNC(=O)c1c(NC(=O)c2ccco2)n(Cc2ccccc2)c2nc3ccccc3nc12` was tested, and the activity, negative = inhibition was inconclusive: -64.4% [inhibitor].
With `O=c1[nH]c(=S)n(-c2ccccc2)c(O)c1/C=N/N1CCCCC1c1cccnc1` (stereo not given) the Potency was active: 8.91 µM.
In the case of `O=C1NC(=O)N(CCc2ccc(F)cc2)C(=O)/C1=C/c1cccs1`, the Potency is reported as active: 3.16 µM.
In the case of `CC(=O)c1cn(Cc2ccc(F)cc2)c2ccccc12`, the Potency is reported as “inactive”.
In the case of `COc1cc(/C=C2\C(=O)NC(=O)N(c3ccc(C)cc3)C2=O)cc(OC)c1O`, the Potency is reported as active: 20 µM.
With `CC1(C)N([O-])[N+](=O)C1(C)Br` (stereo not given) the activity, negative = inhibition was inactive: -32.4% [at 2.33 µM].
`CCCCn1c(O)c(/C=N/NC(=O)c2ccncc2)c(=O)[nH]c1=S` was tested, and the Potency was “inactive”.
`O=c1[nH]c(=S)n(C2CC2)c(O)c1C=Nc1cccc(C(F)(F)F)c1` was tested, and the Potency was inconclusive: 20 µM [inhibitor, single point].
`FC(F)(F)c1ccccc1CCN1CCNCC1` was tested, and the Potency was inconclusive: 56.2 µM [inhibitor, single point].
In the case of `COc1ccc(NC(=O)C2C3CCC(O3)C2C(=O)O)c(OC)c1` (stereo not given), the Potency is reported as active: 10 µM.
For `CCCN(CCC)CCc1ccc(O)c(O)c1`, the Potency was active: 20 µM.
For `O=c1[nH]c(=O)n(Cc2ccc(F)cc2)c(O)c1C=NCCCN1CCOCC1`, the activity, negative = inhibition was inactive: -3.29% [at 12.7 µM].
For `Cc1cc(C)cc(C(=O)OC2CC3CCC(C2)N3C)c1` (stereo not given), the Potency was inconclusive: 1.12 µM [inhibitor, partial curve, poor fit].
In the case of `Cc1ccc2c(=O)n(-c3cccc(Cl)c3)c(=O)[nH]c2c1`, the Potency is reported as inconclusive: 39.8 µM [inhibitor, single point].
With `Cc1ccc(NC(=S)NC2CC3CCC(C2)N3Cc2ccco2)cc1C` (stereo not given) the Potency was inconclusive: 6.31 µM [inhibitor, single point].
For `O=C1NC(=O)C2(Cc3ccccc3N3CCCC32)C(=O)N1c1cccc(Cl)c1` (stereo not given), the Potency was active: 31.6 µM.
`Cc1cc(C(=O)Cn2nnc(-c3ccc(Cl)cc3)n2)c(C)n1-c1ccccc1` was tested, and the Potency was “inactive”.
`COc1cccc(N=Cc2c(O)n(Cc3ccco3)c(=O)[nH]c2=O)c1` was tested, and the Potency was inconclusive: 28.2 µM [inhibitor, partial curve].
`CCCC(=O)c1ccc(CP(=O)(OCC)OCC)o1` was tested, and the Potency was inconclusive: 50.1 µM [inhibitor, partial curve, poor fit].
